{"source": "PubChem BioAssay AID1347073", "about": "(National Center for Advancing Translational Sciences (NCATS), 2019)", "note": "About 200 (0.44%) of roughly 45,000 compounds were called active. About 7% were inconclusive and are not listed. Calls come from the whole dose curve; as a rule, active = well fitted activation curve with a large enough effect; inconclusive = small, poorly fitted or top-dose-only effect; inactive = no such curve, though single readings can be large or run the other way. The list shows a part of the results.", "data": [{"experiment": "qHTS of TDP-43 Inhibitors: NCGC Sytravon Library Screen; note: 0% is about no effect; nearly all actives have a fitted effect of over 55% in size", "conditions": "yeast TDP-43 toxicity rescue, BacTiter-Glo growth, 24 h; series mostly up to 46.1 µM; growth rescue (activation): at the top concentration", "method_in_brief": "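TDP-43-expressing yeast, pregrown in raffinose, seeded at OD600 0.02 in galactose medium with compound for 24 hr at 30 deg C. Growth read by BacTiter-Glo luminescence, so rescue of toxicity appears as activation.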", "values": [{"molecule": "Cc1ccc(F)c(S(=O)(=O)NC(=O)C2(C)CCN2C(=O)Cc2ccc(C(C)(C)C)cc2)c1", "note": "(centres undefined)", "growth rescue (activation)": "inactive: 3.47%"}, {"molecule": "Oc1cccc(-c2ccc3nccn3c2)c1", "growth rescue (activation)": "inactive: -18.8%"}, {"molecule": "CS/C(=N\\S(=O)(=O)c1cccs1)Nc1ccc(F)c(Cl)c1", "growth rescue (activation)": "inactive: 5.27%"}, {"molecule": "Cc1ccc(S(=O)(=O)N2CCC(NC(=O)c3cccnc3)CC2)cc1Cl", "growth rescue (activation)": "inactive: 13.4%"}, {"molecule": "COC(=O)c1ccccc1NC(=O)c1ccc2c(=O)n3c(nc2c1)CCCCC3", "growth rescue (activation)": "inactive: 0.41%"}, {"molecule": "Cc1ccc(NC(=O)CSC2=NN3CCCC(=O)N=C3S2)cc1Cl", "growth rescue (activation)": "inactive: -7.58%"}, {"molecule": "CCc1nc(SCC(=O)c2cccc([N+](=O)[O-])c2)n[nH]1", "growth rescue (activation)": "inactive: 18.4%"}, {"molecule": "C1CC(CN2CCOCC2)CN(Cc2nc(CC3CC3)no2)C1", "note": "(centres undefined)", "growth rescue (activation)": "inactive: 12.6%"}, {"molecule": "Cc1cc(NC(=O)c2ccc(Br)c([N+](=O)[O-])c2)no1", "growth rescue (activation)": "inactive: 10.9%"}, {"molecule": "COc1cccc(CC2(CO)CCN(CC3=CC[C@H]4C[C@@H]3C4(C)C)CC2)c1", "growth rescue (activation)": "inactive: 11.1%"}, {"molecule": "Cn1c(=O)n(C)c2cc([N+](=O)[O-])c(N3CCN(C(=O)C(C)(C)C)CC3)cc21", "growth rescue (activation)": "inactive: -3.45%"}, {"molecule": "Oc1ccc2c(c1)C1CCCC1(N1CCOCC1)O2", "note": "(centres undefined)", "growth rescue (activation)": "inactive: 19.8%"}, {"molecule": "O=C(CSc1nnc(CCc2ccccc2)n1-c1ccc(Cl)cc1)NCc1ccccc1", "growth rescue (activation)": "inactive: 30.7%"}, {"molecule": "CC(=O)CSc1nc2c(c(=O)[nH]c(=O)n2C)n1Cc1ccccc1Cl", "growth rescue (activation)": "inactive: -0.235%"}, {"molecule": "Cc1cccc(C)c1OCc1cc(C(=O)N(Cc2nccn2C)C(C)C)no1", "growth rescue (activation)": "inactive: 1.08%"}, {"molecule": "Cc1cc(NS(=O)(=O)c2ccc(NS(=O)(=O)c3ccc(CC(C)C)cc3)cc2)nc(C)n1", "growth rescue (activation)": "inactive: -0.824%"}, {"molecule": "O=C(NC(=S)N1CCCC(C(F)(F)F)C1)c1ccc(F)cc1", "note": "(centres undefined)", "growth rescue (activation)": "inactive: 5.15%"}, {"molecule": "N#Cc1ccccc1NC(=O)COc1ccc2c(c1)OCO2", "growth rescue (activation)": "inactive: 14.9%"}, {"molecule": "CCCS(=O)(=O)N1CCCC(C(=O)NCc2ccc(C)cc2)C1", "note": "(centres undefined)", "growth rescue (activation)": "inactive: 29.4%"}, {"molecule": "CN(Cc1ccccc1)C(=O)c1ccc(NC(=O)c2ccccc2)cc1", "growth rescue (activation)": "inactive: 20.7%"}, {"molecule": "N#CCC(=O)N/N=C/c1ccc(Cl)cc1", "growth rescue (activation)": "inactive: -22.7%"}, {"molecule": "COc1ccc2sc(/C=C/c3ccccc3O)[n+](C)c2c1", "growth rescue (activation)": "inactive: -5.92%"}, {"molecule": "CN(CC(=O)Nc1ccccc1Br)C(=O)c1cccc([N+](=O)[O-])c1", "growth rescue (activation)": "inactive: 19.8%"}, {"molecule": "CC(NC(=O)c1ccc(F)cc1)c1ccc2c(c1)CCCC2", "note": "(centres undefined)", "growth rescue (activation)": "inactive: 12.5%"}, {"molecule": "Cc1cc(NC(=O)/C=C/c2ccco2)ccc1NC(=O)c1ccccc1", "growth rescue (activation)": "inactive: -6.1%"}, {"molecule": "Cc1ccccc1Nc1nc(N)nc(CSc2ccccc2)n1", "growth rescue (activation)": "inactive: 41.5%"}, {"molecule": "CCc1ccc(C2=NNC(=Nc3cccc(S(=O)(=O)N(C)C)c3)SC2)cc1", "growth rescue (activation)": "inactive: 5.9%"}, {"molecule": "CN(CCO)C1=NS(=O)(=O)c2cc([N+](=O)[O-])ccc21", "growth rescue (activation)": "inactive: 7.48%"}, {"molecule": "COc1ccc(OCCN2CCC(C(=O)NC(C)c3cccc4ccccc34)CC2)cc1", "note": "(centres undefined)", "growth rescue (activation)": "inactive: 5.6%"}, {"molecule": "CS(=O)(=O)N(Cc1ccc(Cl)cc1)c1ccc(C(=O)NCc2ccccn2)cc1", "growth rescue (activation)": "inactive: 27%"}, {"molecule": "CC(C)(C)NC(=O)NC(=O)COC(=O)c1cc[n+]([O-])cc1", "growth rescue (activation)": "inactive: 10.3%"}, {"molecule": "COc1cc(SC)ccc1C(=O)Nc1ccc2c(c1)CCC2", "growth rescue (activation)": "inactive: 8.57%"}, {"molecule": "Cc1cc2c(SCC(=O)NC3CCCCC3)ncnc2s1", "growth rescue (activation)": "inactive: 12.4%"}, {"molecule": "CCNc1ccc(C(=O)OCC)cc1NC(=O)c1cccc(S(=O)(=O)N(C)c2ccccc2)c1", "growth rescue (activation)": "inactive: 14.2%"}, {"molecule": "Cc1ccc(S(=O)(=O)c2nc(-c3ccccc3)oc2SCC(=O)NCC2CCCO2)cc1", "note": "(centres undefined)", "growth rescue (activation)": "inactive: 0.287%"}, {"molecule": "O=C(Cn1c(=O)oc2ccccc21)Nc1ccc(Br)cc1", "growth rescue (activation)": "inactive: 9.87%"}, {"molecule": "Cc1cccc(N(CC(=O)NC(C)(C)C)C(=O)CS(=O)CC(=O)Nc2ccc(F)cc2)c1", "note": "(centres undefined)", "growth rescue (activation)": "inactive: 13.7%"}, {"molecule": "Cc1cc(NC(=O)CSc2nc3c(cc2C#N)CCCCC3)no1", "growth rescue (activation)": "inactive: 0.786%"}, {"molecule": "CC(C)(C)NC(=O)C(=O)NNC(=O)c1ccccc1", "growth rescue (activation)": "inactive: 29.7%"}, {"molecule": "Cc1nc(Nc2ccccc2)c2oc3ccc(Cl)cc3c2n1", "growth rescue (activation)": "inactive: -0.738%"}, {"molecule": "Cc1cc2c(SCC(=O)Nc3ccccc3O)ncnc2s1", "growth rescue (activation)": "inactive: 10.5%"}, {"molecule": "COc1cc(CC(=O)N2CCN(C(=O)C3CCCO3)CC2)cc(OC)c1OC", "note": "(centres undefined)", "growth rescue (activation)": "inactive: 0.31%"}, {"molecule": "Cc1[nH]n(-c2ccccc2)c(=O)c1C=Nc1ccc(S(N)(=O)=O)cc1", "growth rescue (activation)": "inactive: 6.39%"}, {"molecule": "Cc1ccnc2nc(C(=O)Nc3nc(-c4ccccn4)cs3)nn12", "growth rescue (activation)": "inactive: 7.55%"}, {"molecule": "O=S(=O)(Nc1ccc(N2CCCCC2)cc1)c1ccc(F)c(F)c1", "growth rescue (activation)": "inactive: 21.6%"}, {"molecule": "CC(Sc1nnc(-c2ccncc2)n1C)C(=O)Nc1nccs1", "note": "(centres undefined)", "growth rescue (activation)": "inactive: -4.52%"}, {"molecule": "CCOC(=O)c1oc2c(c1C)-c1nn(Cc3c(F)cccc3Cl)cc1CC2", "growth rescue (activation)": "inactive: 10.9%"}, {"molecule": "CC(C)N1CCN(Cc2ccoc2)CC1CCO", "note": "(centres undefined)", "growth rescue (activation)": "inactive: -0.455%"}, {"molecule": "CC(C)CCNC(=O)Nc1ccc2c(c1)N(Cc1ccccc1)C(=O)c1ccccc1S2", "growth rescue (activation)": "inactive: 17.6%"}, {"molecule": "C=CCNC(=O)C(=O)N/N=C/c1ccco1", "growth rescue (activation)": "inactive: 2.94%"}, {"molecule": "CC(=O)N(CCc1ccccc1C)Cc1cc2cc3c(cc2[nH]c1=O)OCO3", "growth rescue (activation)": "inactive: 5.51%"}, {"molecule": "COCC(C)NC(C(=O)Nc1cccc(C(C)=O)c1)c1ccccc1", "note": "(centres undefined)", "growth rescue (activation)": "inactive: -1.63%"}, {"molecule": "CC1CCCC(C)N1C(=O)COc1ccc(F)cc1", "note": "(centres undefined)", "growth rescue (activation)": "inactive: 17.5%"}, {"molecule": "Fc1cccc(Cc2noc(CN3CCCN(C4Cc5ccccc5C4)CC3)n2)c1", "growth rescue (activation)": "inactive: -2.64%"}]}]}
